# ± gives the standard deviation of the averaged measurements. The list shows a part of the results.
# Tested on: PfAP2-EXP AP2 domain (GST-tagged)
# Test: gcPBM binding intensity (ln(normalized median fluorescence intensity)); higher = stronger DNA binding
# In short: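 Binding intensity is defined as the maximum Masliner-normalised natural-log median intensity across replicate spots for either probe orientation. It was measured on an Agilent 4 × 180k array of primer-extended double-stranded 36-bp intergenic genomic probes and negative controls, to which GST-tagged P. falciparum DNA-binding domains made in E. coli were applied for 1 h in 1× PBS with 1% milk, 0.2 mg/ml BSA, 0.5% salmon testes DNA and 0.03% Triton X-100. Detection was by Alexa488 anti-GST antibody and scanning at 488 nm.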
row,Sequence,gcPBM binding intensity (ln)
1,GTATTCTACAGACACATACACACATATATATATATA [CACACA_site3427],10.1 ± 0.22
2,AAAAAATAATTGAAGTGTACGTACAATGATTTTACT [XGTACX_site7663],8.77 ± 0.35
3,TAAACCTTAAAATATTTCTCATGTTTAACTTATATT [GTGCAC_negctrl_site233],8.52 ± 0.44
4,AAGAAAAACTTTACGTGTACCAAACATCCTGCCGAC [XGTACX_site4895],8.58 ± 0.54
5,GGGAGAAATTTATACATACACACATATATATATTAT [CACACA_site4039],8.71 ± 0.45
6,TTATAATATTGTGGTATACACACCTTACAAAAAGGT [CACACA_site2878],8.52 ± 0.39
7,TATATTCTACAAGAATTATGAATTGTCAGACCAAAT [CACACA_negctrl_site1101],8.29 ± 0.38
8,TTATATACCCTAATATGTTTTATTATTATTATATAT [TGCATGCA_negctrl_site6],8.35 ± 0.34
9,TACAATGTGGATAATTGTACAAAACCGATAAGAGGG [XGTACX_site6453],9.19 ± 0.33
10,TGTTCTGAACGGTTCATGCACTTTTTTTTGTTAATT,8.69 ± 0.45
11,CTGTTTTTGTTTTAAAGTACATTGTTCAATATACAT [XGTACX_site5288],8.79 ± 0.23
12,TTTATTTTCATATGAACACACATATATATATTATAA [CACACA_site2369],8.82 ± 0.49
13,ATATAAATAATATAAATACACACTAAAAAAAATATA [CACACA_site542],8.72 ± 0.51
14,AACTAAACAAAAGTTACACACATCATACGATATTAT [CACACA_site3180],8.3 ± 0.37
15,ATAATTTATATTCAGAAACACACGAAAAAAAAAAAT [CACACA_site1296],8.84 ± 0.45
16,ATGTTAAGAATAATTAGTACTTACATATGTATAATA [XGTACX_site4419],8.54 ± 0.32
17,TATATTATATACGTCTGTACACAAATGAGAGGTAAA [XGTACX_site5538],8.88 ± 0.43
18,ACCATATAATTTTTTTGTACATAATGATTTTTTTTT [XGTACX_site1104],8.71 ± 0.4
19,AATAATATATATTGTACACACAAAATGGGAAAAAAA [CACACA_site5100],8.98 ± 0.42
20,AAAAAATAATAATAAAATGAATAGATATGTATTTAT [TGCATGCA_negctrl_site210],8.4 ± 0.32
21,TTATAAAAAAAAAAAAAAAATATATATATATATATA [XGTACX_negctrl_site592],10.3 ± 0.13
22,ACAAAATGTAAATAAACACACATATATATATATATA [CACACA_site1281],10.1 ± 0.39
23,ATATATATATATATTTGTACAGAAAATATTTTAATA [XGTACX_site3706],10 ± 0.21

row,Sequence,gcPBM binding intensity (ln)
1,AGCAGAGTTACAATTTGTACGTAATTGATATAGATA [XGTACX_site4051],8.75 ± 0.48
2,AACATATTATCTTGTGAAAATAATATAAGTCACATT [TGCATGCA_negctrl_site339],8.29 ± 0.38
3,TATATAAACCCGTACACACACATATATGTATATATA [CACACA_site3507],8.91 ± 0.25
4,TTACTCATGAAAGATACACACATTCATTATATATAT [CACACA_site3252],8.7 ± 0.26
5,AGACATAAGATAATTACACACAATACATCCCTATAT [CACACA_site2227],8.61 ± 0.42
6,TACTTCTACAAGAGAAGTACAATATTTTTTATATTA [XGTACX_site8351],7.95 ± 0.32
7,AATAAAAATTTACTTTGTACACATATTAAATTCAAT [XGTACX_site1957],8.18 ± 0.18
8,AAATTTACAATACATTGTACATATTAATAATATTCC [XGTACX_site3646],8.34 ± 0.36
9,TTAACGTAAAATATAGTGCATAGTATCATATTGATA [GTGCAC_site9527],8.56 ± 0.3
10,CAATCAAAGAAACACACACACACCTAAACATAAAAG [CACACA_site2756],8.74 ± 0.61
11,TGTAGTTTGTCCCATGCATGTTCCATTAAAATATAT [TGCATGCA_site854],9.27 ± 0.38
12,AATGTATATATGTAATGTACATATATAATGTATATA [XGTACX_site6510],8.48 ± 0.26
13,AATGTAAAATATATGTGTACATATGTTTATATATAT [XGTACX_site2216],8.71 ± 0.23
14,AAATGTGTTTATTTAACACACAAAAGAAAAAATATA [CACACA_site6993],8.55 ± 0.43
15,GTGTGTTGTATATACTGTACATACTTTATATATAGT [XGTACX_site1876],8.63
16,TATAACAAGTAATGTTGTACATTGTATTATGTAATA [XGTACX_site6372],8.28 ± 0.3
17,AGATATATTATTAGGTGTACTATAAAATAAATTCAC [XGTACX_site221],8.55 ± 0.47
18,CGAACAAACAAATAAACACACAAAAAAAGATATATA [CACACA_site6944],8.72 ± 0.57
19,AAAAAAAATTAGGAAACATGCATGTCCCGATAAATA [TGCATGCA_site149],9.16 ± 0.2
20,AAAATCAAGTAGTATAAAGTAAGTATCATAAAAATA [CACACA_negctrl_site1554],8.71 ± 0.32
21,ATAATAAAATGGAGAGTGCATACATGTTTATTTTAT,8.93 ± 0.33
22,GTACACTAATTATGTGCACACAAATTAAAGGTCTAC [CACACA_site146],8.88 ± 0.19
